Results on 93 compounds are retold here after PubChem BioAssay AID1963576 (National Center for Advancing Translational Sciences (NCATS), 2024).

Screen size: about 46,000 compounds; about 60 (0.1%) were called active. Another 3% or so got no clear call; they are omitted. Calls follow the shape of the dose curve; as a rule, active = well fitted inhibition curve with a large enough effect; inconclusive = small, poorly fitted or top-dose-only effect; inactive = no such curve, though single readings can be large or run the other way. This is one part of the list.

The test is described as follows: Primary qHTS assay for Inhibitors of ovarian cancer metastasis using an organotypic tumor microenvironment (TME) model. Also: nearly all actives have a fitted effect of over 65% in size.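 As to activity change, negative = inhibition: plate controls were DMSO wells for no effect and tomatine positive control wells for full effect.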 Conditions: SKOV3ip1-GFP adhesion/invasion on 3D omental model, fluorescence; series mostly up to 45.8 µM; activity change, negative = inhibition: at the top concentration. The essentials:
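Adhesion/invasion was scored as fixed GFP-labeled SKOV3ip1 cell counts (488/509 nm), normalized to DMSO and tomatine controls. Cancer cells in serum-free medium, with four compound doses (0.36-46 umol/L), sat 2 hr at RT then 16 hr at 37 C on a 48 hr fibroblast/mesothelial/ECM culture.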
Regarding `CCOc1ccccc1NC(=O)CSc1nc2c(oc3ccccc32)c(=O)n1-c1ccc(C)c(C)c1`, the call was inactive.

As to `COc1cc(OC)c(OC)cc1/C=C/c1nc2cc3ccccc3cc2c(=O)n1-c1ccc(Cl)cc1`, the compound was classed as inactive. As to `Cc1ccc(Nc2c(-c3c[nH]c4ccccc34)nc3cc(C)ccn23)cc1`, the “activity change, negative = inhibition” value is inactive: 1.36%. Turning to `CCOC(=O)C1=C(CS(=O)(=O)c2cccc(C(F)(F)F)c2)NC(=O)NC1c1cccc(OC)c1` (stereo not drawn), the result was inactive. Take `CCC(C(=O)Nc1cc(Cl)ccc1OC)n1nc(-c2ccccc2)ccc1=O` (stereo not drawn): the “activity change, negative = inhibition” value was inactive: 57.4%. `Cc1cccc(NC(=O)c2oc3ccccc3c2NC(=O)Cc2coc3c(C)c(C)ccc23)c1`: the “activity change, negative = inhibition” value is inactive: -8.12%. Take `CC1=C(c2ccc(C)c(C)c2)S(=O)(=O)N(Cc2ccc(C(=O)NCc3cccc(C)c3)cc2)C1=O`: the outcome was inactive. Regarding `O=C(CCC1N=C2c3ccccc3N=C(SCc3ccc(F)cc3)N2C1=O)NCc1cccs1` (stereo not drawn), the “activity change, negative = inhibition” value is inactive: -1.59%. The same measure, in the same setting: then `COc1cc(C(CC(=O)NCc2ccc(F)cc2)N2Cc3ccccc3C2=O)cc(OC)c1OC` (stereo not drawn), with inactive: -12.4%. The same measure, in the same setting: next, `COc1ccc(NC(=O)Cn2c(=O)n(-c3ccc(OC)c(OC)c3)c(=O)c3ccccc32)cc1`: inactive: 32.2%; `CCCCN(C)c1nc2c(S(=O)(=O)c3ccc(CC)cc3)nnn2c2ccc(Cl)cc12`: inactive: 4.28%.

Regarding `COc1ccccc1NC(=O)C1=C(C)Nc2c(C(=O)Nc3ccc(F)cc3)cnn2C1c1cccc([N+](=O)[O-])c1` (stereo not drawn), the “activity change, negative = inhibition” value is inactive: -23.8%. Same read-out and setting: then `CC(=O)N1CCc2cc(Br)cc(S(=O)(=O)N3CCN(c4cccc(C(F)(F)F)c4)CC3)c21`, with inactive: -3.17%.

Regarding `CCCCOc1ccc(-c2nn(-c3ccccc3)cc2C2NC(=O)NC(C)=C2C(=O)OC)cc1` (stereo not drawn), the “activity change, negative = inhibition” value is inactive: 5.74%. For the compound `O=C(C1CC1)N1CCc2cc(Br)cc(S(=O)(=O)N3CCN(c4cccc(C(F)(F)F)c4)CC3)c21`, the “activity change, negative = inhibition” value is inactive: -5.85%. For the compound `COc1ccc(Cl)cc1C(=O)Nc1sc2c(c1C(=O)OC(C)C)CCCC2`, the “activity change, negative = inhibition” value was inactive: 6.41%. On the same count and under the same terms, then `COc1ccccc1CNC(=O)C1CCCN(c2nc3ccccc3n3cccc23)C1` (stereo not drawn), with inactive: -1.48%. Regarding `CCOc1ccc(NC(=O)c2ccc(NC(=O)N3CCSc4ncccc43)cc2)cc1`, the compound was called inactive. As to `COc1ccc(C2CC(=O)c3cc(-c4nc(-c5cccc(Cl)c5)cs4)c(=O)[nH]c3C2)cc1OC` (stereo not drawn), the “activity change, negative = inhibition” value was inactive: -10.4%. Still for that read-out and setting: next, `COC(=O)c1ccccc1NC(=O)c1ccc(COc2ccccc2Cl)o1`: inactive: 7.29%. With `CCC(=O)N1CCc2cc(Br)cc(S(=O)(=O)N3CCC(C(=O)NCCCOC(C)C)CC3)c21`, the call was inactive.

Consider `CCOC(=O)c1ccc(NC(=O)c2c(-c3c(F)cccc3Cl)noc2C)cc1`, for which the “activity change, negative = inhibition” value was inactive: 3%. With `Cc1cccc(N2CCN(c3ncnc4c3nc3n4CCCCC3)CC2)c1C`, the compound was called inactive. As for `Cc1noc(/C=C/c2cccs2)c1S(=O)(=O)N1CCC(C(=O)Nc2ccc(F)c(Cl)c2)CC1`, the “activity change, negative = inhibition” value is inactive: 21%. With `CC(=O)c1ccc(N2CCN(c3ncnc4c3c(-c3ccccc3)cn4-c3cccc(C)c3)CC2)cc1`, the call was inactive. On to `COc1ccc(C(F)(F)F)cc1NC(=O)c1sc2nc(-c3cccs3)ccc2c1N`, for which the “activity change, negative = inhibition” value was inactive: 15.5%. The same measure, in the same setting: then `COC(=O)c1cc2oc3ccccc3c2n1Cc1nc(-c2ccc(OC)cc2)oc1C`, with inactive: -6.28%. On the same count and under the same terms, then `CCn1c(C(=O)NCCc2ccc(OC)c(OC)c2)cc2sc(Cl)cc21`, with inactive: -13.8%.

With `COc1cccc(C(=O)Nc2cccc(C(=O)OCc3cc(=O)n4nc(C5CC5)sc4n3)c2)c1`, the “activity change, negative = inhibition” value is inactive: -5.11%. On the same count and under the same terms, then `O=C(NC1CCCCC1)c1ccc(Cn2c(SCc3ccccc3F)nc3cccnc32)cc1`, with inactive: -9.88%.

As to `Nc1c(-c2nc(-c3cccs3)no2)nnn1-c1ccc(Cl)cc1`, the compound was classed as inactive.

Take `O=C(Cn1cc(C(=O)c2ccco2)c2ccccc21)Nc1ccc(Br)cc1`: the “activity change, negative = inhibition” value was inactive: 1.1%. As for `CC1CCN(S(=O)(=O)c2cn(CC(=O)Nc3cccc(C(F)(F)F)c3)c(=O)c3ccccc23)CC1`, the “activity change, negative = inhibition” value was inactive: -3.69%.

As for `O=C(CSc1ccccc1)N1CCc2c([nH]c3ccccc23)C1c1ccc(F)cc1` (stereo not drawn), the “activity change, negative = inhibition” value was inactive: 1.48%. Take `CSc1ncc2c(n1)-c1ccccc1N(Cc1ccc(Cl)cc1)S2(=O)=O`: the compound was classed as inactive. With `CCOC(=O)c1cnn(-c2ccc(C(=O)Nc3cc(OC)c(OC)c(OC)c3)cc2)c1N`, the “activity change, negative = inhibition” value was inactive: -0.082%. Consider `COc1cccc(CSc2nc3ccccc3c3nc(CCn4c(C)nc5ccccc54)nn23)c1`, for which the “activity change, negative = inhibition” value was inactive: -4.28%. Consider `CCCn1c2ccccc2c2cnn(CC(=O)N(C)c3ccc(F)cc3)c(=O)c21`, for which the “activity change, negative = inhibition” value is inactive: 0.254%. Still for that read-out and setting: next, `COc1cccc(NC(=O)c2ccc3nc(CCc4ccccc4)oc3c2)c1`: inactive: 9.64%; `CCCCNc1nc(Oc2ccc(OCC)nn2)nc(N2CCOCC2)n1`: inactive: 4.46%; `COc1ccc(Cl)cc1NC(=O)c1c(NCc2ccc(C)o2)sc2c1CCCCC2`: inactive: -8.69%. Turning to `CSc1ncc(Cl)c(C(=O)Nc2ccc(NC(C)=O)cc2)n1`, the “activity change, negative = inhibition” value was inactive: 1.88%. On the same count and under the same terms, then `CCC1CCCCN1C(=O)Cn1c(=O)n(CCCCCC(=O)NCc2ccccc2)c(=O)c2sccc21` (stereo not drawn), with inactive: -1.59%; and `COc1ccccc1CNC(=O)CCC(=O)N1CC2CCCN2c2ccccc21` (stereo not drawn), with inactive: -0.39%; and `O=C(NCc1ccc2c(c1)CCN2C(=O)c1ccc(F)cc1)c1cc2ccccc2[nH]1`, with inactive: -2.18%. With `Cc1ccc(-n2ncc(C(=O)NCc3ccccc3C)c2-n2cccc2)cc1`, the compound was called inactive.

Turning to `COc1cccc(NC(=O)C2CCCN(S(=O)(=O)c3c(C)nn(C)c3C)C2)c1` (stereo not drawn), the call was inactive.

Take `Cc1cccc(C)c1OCCn1c(C2CC(=O)N(c3cccc(Cl)c3)C2)nc2ccccc21` (stereo not drawn): the “activity change, negative = inhibition” value was inactive: -1.88%. On the same count and under the same terms, next, `O=C(Cc1ccc(Cl)cc1)Nc1ccc2nn(-c3ccc(Cl)cc3)nc2c1`: inactive: 1.57%; `c1ccc(CNc2nc3c(-c4ccccc4)nnn3c3ccccc23)cc1`: inactive: -9.94%.

For `COc1ccc(SCc2cc(=O)c3cc(Cl)ccc3[nH]2)cc1`, the result was inactive.

In the case of `CCOc1ccc(CCNC(=O)c2cn(CC)c3ccc(S(=O)(=O)N4CCc5ccccc5C4)cc3c2=O)cc1OCC`, the result was inactive. Consider `CCn1c2ccccc2c2cc(CN3CCN(Cc4ccccc4F)CC3)ccc21`, for which the outcome was inactive. Take `O=C(Nc1ccccc1-c1cn2c(CN3CCNCC3)csc2n1)c1cnc2ccccc2n1`: the “activity change, negative = inhibition” value is inactive: -15.3%. The same measure, in the same setting: next, `CCOc1ccc(S(=O)(=O)NCCc2sc3nc(-c4ccc(F)cc4)nn3c2C)cc1`: inactive: -1.48%. As for `Cc1ccc(CNC(=O)c2ccc(Cn3c(=O)c4ccccc4n(CC(=O)Nc4ccc(C)cc4C)c3=O)cc2)cc1`, the result was inactive.

Turning to `CCOc1ccc(OCC)c(NS(=O)(=O)c2cc(-c3cc(C)no3)ccc2C)c1`, the “activity change, negative = inhibition” value is inactive: -5.03%. Same read-out and setting: then `NC(N)=NC(N)=NCCc1ccccc1`, with inactive: 4.29%; and `CC(C)Sc1oc(-c2cccs2)nc1S(=O)(=O)c1ccc(Cl)cc1`, with inactive: 1.9%. In the case of `CCc1ccccc1N1C(=O)N(Cc2ccc(C#N)cc2)c2ccccc2S1(=O)=O`, the compound was classed as inactive. As to `CC(=O)c1ccc(NC(=O)CSc2nnc3ccc(-c4ccc(Cl)cc4)nn23)cc1`, the “activity change, negative = inhibition” value is inactive: -4.7%. As for `Cc1ccc(Nc2c(-c3cccs3)nc3nc(C)cc(C)n23)cc1`, the call was inactive. For `CCOc1ccc(NC(=O)C2CCCN(S(=O)(=O)c3cccc4nonc34)C2)cc1` (stereo not drawn), the call was inactive. Turning to `CCOc1ccc(NC(=O)NCc2c(-n3cccc3)sc3c2CCCC3)cc1`, the “activity change, negative = inhibition” value was inactive: -10.3%.

In the case of `Cc1oc2ncnc(N3CCCCC3)c2c1C(=O)N1CCN(c2cccc(C(F)(F)F)c2)CC1`, the “activity change, negative = inhibition” value is inactive: 1.59%. Consider `CCC(=O)Oc1ccc(/C=C(\C#N)c2nc3ccccc3[nH]2)cc1OC`, for which the “activity change, negative = inhibition” value is inactive: 2.23%. The same measure, in the same setting: then `COc1ccc(-c2cc(C(F)(F)F)nc(S(=O)(=O)CCCC(=O)Nc3cccc(O)c3)n2)cc1OC`, with inactive: -20.6%; and `CCc1ccc(NCc2cc3cc4c(cc3n(CC(=O)Nc3ccc(C)cc3)c2=O)OCO4)cc1`, with inactive: -8.88%. Take `CCOc1ccccc1NC(=O)C(=O)NCCc1sc(-c2cccc(F)c2)nc1C`: the “activity change, negative = inhibition” value was inactive: 9.87%. As to `CCn1c(=O)c2sccc2n2c(CCCC(=O)N3CCN(c4cc(Cl)ccc4C)CC3)nnc12`, the outcome was inactive.

On to `CCCCn1c(SCC(=O)NCCCOC)nc2c(sc3ccccc32)c1=O`, for which the “activity change, negative = inhibition” value was inactive: -7.31%. Take `CCN(CC)c1cc(C)c2cc(NC(=O)c3ccccc3OC)ccc2n1`: the compound was classed as inactive. With `Cc1cc(C)c(NC(=O)CSc2ccc(-c3sc(-c4ccccc4)nc3C)nn2)c(C)c1`, the result was inactive. As to `Cc1cc(C)c(NC(=O)CSc2nc3nc(C)cc(C)n3n2)c(C)c1`, the “activity change, negative = inhibition” value is inactive: -8.01%. For the compound `CCc1ccc(C(=O)c2cn(CC(=O)Nc3ccc(OC)c(OC)c3)c3ccc(C)cc3c2=O)cc1`, the compound was classed as inactive. Regarding `COc1ccccc1N1CCN(c2ncccc2-c2nc(-c3ccc(Cl)cc3)no2)CC1`, the “activity change, negative = inhibition” value is inactive: 2.55%. Take `C[C@H](CCC(=O)O)[C@H]1CCC2C3C[C@H](O)[C@@H]4C[C@H](O)CC[C@]4(C)C3CC[C@@]21C` (stereo partly drawn): the “activity change, negative = inhibition” value is inactive: 20.5%. Same read-out and setting: then `CCCCOc1cccc(C2c3c(oc4ccccc4c3=O)C(=O)N2c2ccccn2)c1` (stereo not drawn), with inactive: 0.65%.

With `COc1ccc(-c2nnc(SCC(=O)NCc3ccc(C)cc3)nc2-c2ccc(OC)c(OC)c2)cc1OC`, the call was inactive. Regarding `O=C(CSc1nc(-c2ccc(F)cc2)[nH]c1-c1ccccc1)NCC1CCCO1` (stereo not drawn), the “activity change, negative = inhibition” value is inactive: -7%. In the case of `CCOC(=O)c1cnc2c(ccc3ccccc32)c1Nc1cccc(OC)c1`, the call was inactive. For `O=C(NCCc1ccccc1)c1cc(S(=O)(=O)N2CCCCC2)c[nH]1`, the outcome was inactive. On the same count and under the same terms, then `Cc1ccc(CN(Cc2ccco2)C(=O)COc2cc(C)c(Cl)c(C)c2)cc1`, with “inactive”; and `COc1ccc(CCNC(=O)c2ccc3c(c2)N(Cc2ccccc2F)C(=O)c2ccccc2S3(=O)=O)cc1OC`, with “inactive”; and `Cc1nn(C(=O)c2c(F)cccc2F)c(C)c1S(=O)(=O)N1CCOCC1`, with “inactive”.

`CCCC1=Nc2cc(C(=O)NC(C)c3ccccc3)ccc2Sc2ccc(C)cc21` (stereo not drawn): the “activity change, negative = inhibition” value was inactive: 2.24%.

On to `O=C(CCN1N=C(c2ccccc2)CCC1=O)NCCc1ccc(Cl)cc1`, for which the “activity change, negative = inhibition” value was inactive: -8.07%. For `O=c1c2c(-c3ccccc3)ccnc2[nH]n1-c1ccccc1`, the “activity change, negative = inhibition” value is inactive: 7.44%. Consider `Cc1cc(C(F)F)n2nc(C(=O)Nc3c(C)cccc3C)nc2n1`, for which the “activity change, negative = inhibition” value is inactive: 5.3%. On to `Cc1cccc(N2CCN(C(=O)c3cc4c(=O)oc5ccccc5c4s3)CC2)c1C`, for which the compound was classed as inactive. Consider `Cc1ccc(NC(=O)/C=C/c2ccc(C)o2)c(C)c1`, for which the “activity change, negative = inhibition” value is inactive: 3.58%. For `CCc1ccc(NC(=O)CN(c2ccc(OC)cc2)S(=O)(=O)c2c(C)[nH]c(=O)[nH]c2=O)cc1`, the “activity change, negative = inhibition” value is inactive: -5.2%. On to `COc1ccc(-n2c(CC3C(=O)N(C)c4ccc(C)cc43)nc3ccccc3c2=O)cc1` (stereo not drawn), for which the “activity change, negative = inhibition” value is inactive: 2.39%.
